Reference: PubChem BioAssay AID1963451 (Molecular Pharmacology Branch, DTP, NCI, 2024)
Some entries of the source have several records that differ or are many. Only these are listed. The source may hold further records. Values that stand side by side are repeated measurements (runs, samples, wells, individuals or studies). Marks such as (2×) count equal records among those shown.

System: 521955-158-R6-J3-PDC complex spheroid growth, % test/control
Experiment: Anticancer human tumor 521955-158-R6-J3-PDC patient-derived pancreatic carcinoma cell line growth inhibition [Asc]
Details: stronger effect = lower value
Method: Multicellular complex tumor spheroid response to apoptosis pathway targeting inhibitors Alrizomadlin, Pelcitoclax, and Dasminapant in combination with a variety of drugs and investigational agents in selected tumor cell lines
The MDM2 inhibitor alrizomadlin, the Bcl-2/Bcl-xL inhibitor pelcitoclax, and the IAPs inhibitor dasminapant were evaluated both individually and in combination with standard of care and investigational anticancer small molecules within a complex spheroid model of solid tumors. . Complex spheroids include a stromal component modeled by human endothelial cells (HUVEC) and fibroblasts modeled by human mesenchymal stem cells (MSCs). The concentration ranges selected for each drug and investigational agent were based upon clinically achievable concentrations if the clinical Cmax of the agent was known.
Compounds. The drugs and investigational agents: alrizomadlin (APG-115; NSC831270), pelcitoclax (APG-1252; NSC835773), dasminapant (APG-1387;NSC834197), TAK-243 (NSC785004), copanlisib (NSC809693), olaparib (NSC753686), talazoparib (NSC767125), cobimetinib (NSC 768068), eltanexor (KPT-8602, NSC 794443), abemaciclib (NSC 768073), sotorasib (NSC818433), adagrasib (NSC 831453), MRTX-1133 (NSC 836407), Iadademestat (ORY1001, NSC 806812), and RMC-4630 (NSC839698), were obtained from the NCI Developmental Therapeutics Program Chemical Repository. The FDA-approved anticancer drug set is available from the Developmental Therapeutics Program at https://dtp.cancer.gov/organization/dscb/obtaining/available plates.htm. […] The stock solutions were prepared in dimethyl sulfoxide (DMSO, Sigma-Aldrich, St. Louis, MO, cat. D2650) at 800-fold the tested concentration and stored at -70 degrees C prior to their use. All drugs and investigational agents were tested over a range starting from a high concentration at or near the clinical Cmax and decreasing in half-log increments. If the clinical Cmax for an agent had not been determined, the highest concentration tested was 10 microM.
The patient-derived cancer (PDC) cell lines include five colon adenocarcinomas: 186277-243-T-J2-PDC, 616215-338-R-J1-PDC, 439559-082-T-J2-PDC, 463943-066-T-J2-PDC, and 519858-162-T-J1-PDC; three pancreatic carcinomas: 323965-272-R-J2-PDC, 521955-158-R6-J3-PDC, and 521955-158-R2-J5-PDC; two uterine sarcomas: 327498-152-R-J2-PDC and 993429-296-R-J1-PDC; two rhabdomyosarcomas: 755483-174-R-J1-PDC and 772245-204-R-J1-PDC; two soft tissue sarcomas: 126254-015-R-J1-PDC and 494315-158-R-J1-PDC; two malignant fibrous histiocytomas: 317291-083-R-J1-PDC and 596521-263-R-J1-PDC; two breast carcinomas: 171881-019-R-J1-PDC and 885512-296-R-J2-PDC; and one ovarian carcinoma: 6556581-035-R-J-PDC were obtained from the NCI PDMR, (https://pdmr.cancer.gov). The established cell lines HSSY-2 synovial sarcoma (RRID:CVCL 8719), SYO-1 synovial sarcoma (RRID:CVCL_7146), MPNST malignant peripheral neural sheath tumor were obtained from the Sloan Kettering Institute. The following established cell lines were purchased from the American Type Culture Collection (ATCC, Manassas, VA), Sor the received from the NCI repository:, PANC-1 pancreatic carcinoma (CRL-1469, RRID:CVCL_0480), OVCAR-5 ovarian carcinoma (RRID:CVCL_1628), OVCAR-8 ovarian carcinoma (RRID:CVCL_1629), , MCF-7 breast carcinoma (CRL-12584, RRID:CVCL_0031), MDA-MB-231 breast carcinoma (CRL-12532, RRID:CVCL_0062), NCI-H1876 small cell lung carcinoma (CRL-5902, RRID:CVCL_1503), NCI-H510A small cell lung carcinoma (HTB-184, RRID:CVCL_1565), NCI-H1417 (CRL-5869, RRID:CVCL_1469), and NCI-H196 small cell lung carcinoma (CRL-5823, RRID:CVCL_1509). Dr. Peter Houghton (Greehey Children's Cancer Research Institute, University of Texas Health Science Center, San Antonio, TX) provided Rh-18 rhabdomyosarcoma (RRID:CVCL_1659). Pooled donor human umbilical vein endothelial cells (HUVEC, Lonza, cat. CC-2519) and human mesenchymal stem cells (hMSC, Lonza, cat. PT-2501) were purchased from Lonza (Walkersville, MD).
Cell Culture. […]
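Also: spheroids exposed to compounds for 7 days; 100% = DMSO vehicle control wells.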

Row | SMILES | viability, T/C (compound alone 0.00316 µM) | viability, T/C (compound alone 0.01 µM) | viability, T/C (compound alone 0.0316 µM) | viability, T/C (compound alone 0.1 µM) | viability, T/C (compound alone 0.316 µM) | viability, T/C (compound alone 1 µM) | viability, T/C (compound alone 0.00949 µM) | viability, T/C (compound alone 0.03 µM) | viability, T/C (compound alone 0.0949 µM) | viability, T/C (compound alone 0.949 µM) | viability, T/C (compound alone 3 µM)
1 | CNC(C)C(=O)NC1CN(S(=O)(=O)c2cccc(S(=O)(=O)N3CCC4CCC(C(=O)NC(c5ccccc5)c5ccccc5)N4C(=O)C(NC(=O)C(C)NC)C3)c2)CCC2CCC(C(=O)NC(c3ccccc3)c3ccccc3)N2C1=O (stereo unspecified) | 100 (2×), 105, 152, 153, 130, 90.7, 90.3, 85.7% | 88.9, 94.2, 145, 93.3, 71.7, 83.2, 106, 82.9, 90.5% | 92.2, 101, 84.7, 90.8, 70.5, 78.4, 98.9, 80.6, 78.8% | 93.9, 91.5, 86.5, 124, 78.9, 100, 93, 98.9, 87.7% | 104, 86.2, 94.5 (2×), 100, 76.9, 91.3, 95.2, 90% | 80.7, 81.7, 88.7, 96.6, 71.6, 88.4, 103, 87.9, 88.8% | – | – | – | – | –
2 | CCN1C(C(=O)NC23CCC(C(=O)O)(CC2)CC3)C(c2cccc(Cl)c2F)C2(C(=O)Nc3cc(Cl)ccc32)C12CCCCC2 (stereo unspecified) | – | – | – | – | – | – | 95.8, 100, 90, 86.9, 92.5, 106, 105, 108, 82.7% | 101, 96.5, 86.5, 83.2, 89.1, 106, 95.7, 104, 114% | 111, 113, 97.1, 101 (2×), 104, 102, 92.5, 85.4% | 105, 128, 114, 123, 125, 124, 148, 108, 115% | 123, 98.1, 109, 100, 104, 135, 113, 117, 102%
